# Assay results: PubChem BioAssay AID1466 (National Center for Advancing Translational Sciences (NCATS), 2008)
# The whole screen tested about 200,000 compounds, of which about 10 (0.005%) were called active. The shares of active, inactive and inconclusive entries below differ from those in the screen. Calls come from the whole dose curve; as a rule, active = well fitted inhibition curve with a large enough effect; inconclusive = small, poorly fitted or top-dose-only effect, or effect the other way, or another doubt; inactive = no such curve, though single readings can be large or run the other way. Potencies of inconclusive entries are left out as doubtful fits.
# Biological target: Lysosomal alpha-glucosidase (Homo sapiens) (UniProt P10253)
# Test: qHTS Assay for Inhibitors of Human alpha-Glucosidase as a Potential Chaperone Treatment of Pompe Disease;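 for activity change, negative = inhibition: plate controls were uninhibited enzyme wells for no effect and no-enzyme background for full effect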
# Conditions: purified human GAA, 4-MU-alpha-glucoside fluorescence; activity change, negative = inhibition: at 76.9 µM (top of the series) unless noted
# In short: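 Human enzyme at 4 nM with 400 uM 4-methylumbelliferyl-alpha-D-pyranoside, citrate/phosphate buffer pH 5.0, 0.005% Tween-20, 20 min at room temperature. Compounds up to 77 uM. 4-MU fluorescence (Ex 365/Em 440) read after NaOH/glycine stop; AC50 from Hill fit.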
# Potency is the fitted concentration of half-maximal effect; tags give direction and shape of the fitted curve.
SMILES,Potency,"activity change, negative = inhibition"
CCS(=O)(=O)c1ccc2c(c1)N(S(C)(=O)=O)CC(C(=O)NCCOC)O2 (stereo unspecified),"inconclusive [inhibitor, full curve, poor fit]",–
Clc1cccc(Nc2ncnc3c2cnn3-c2ccccc2)c1,"inconclusive [inhibitor, single point]",–
Cn1cc(CNC(=O)/C=C/c2ccc(Cl)cc2)cn1,"inconclusive [inhibitor, single point]",–
O=C(COC(=O)Cn1cnc2ccccc2c1=O)NCC12CC3CC(CC(C3)C1)C2,"inconclusive [inhibitor, single point]",–
S=c1[nH]c2ccccc2o1,"inconclusive [inhibitor, partial curve]",–
CCCCC(C(=O)OCC(=O)c1ccc(OC)cc1)N1C(=O)c2ccccc2C1=O (stereo unspecified),–,inconclusive: -15.7% [inhibitor]
CCNc1ccccc(C(=O)/C=C/c2ccc3c(c2)OCO3)c1=O,"inconclusive [inhibitor, full curve]",–
Cn1c(-c2ccc(F)cc2)cnc1SCC(=O)NNC(=O)Cc1ccccc1,–,inconclusive: 10.5% [activator]
CC(C)Cc1nc(NCCN2CCOCC2)c(C#N)c2c1COC(C)(C)C2,"inconclusive [inhibitor, partial curve, poor fit]",–
Cc1c(C(=O)OCC(=O)N2c3ccccc3CC2C)oc2ccccc12 (stereo unspecified),"inconclusive [inhibitor, partial curve, poor fit]",–
CC1C(=NO)C(C)C(c2ccc(N(C)C)cc2)NC1c1ccc(N(C)C)cc1 (stereo unspecified),–,inconclusive: -19.4% [inhibitor]
O=c1c2ccccc2nc(SCc2nnc(-c3ccccc3Br)o2)n1Cc1ccco1,"inconclusive [inhibitor, single point]",–
N#Cc1cccc(-c2nnc(SCc3ccccc3C#N)o2)c1,–,inconclusive: 17.9% [activator]
CCc1nnc(NC(=O)CSc2nnc(-c3ccccc3O)n2-c2ccc(C)cc2)s1,"inconclusive [inhibitor, single point]",–
CCOc1ccc(S(=O)(=O)N2CCN(c3ccccc3OC)CC2)c2cccnc12,"inconclusive [inhibitor, partial curve]",–
CN1CCN(C2=Cc3ccc(Cl)cc3Sc3ccc(F)cc32)CC1,"inconclusive [inhibitor, single point]",–
CCC1=NN(C(=O)c2ccc(Br)cc2)C(O)(c2ccccc2)C1 (stereo unspecified),"inconclusive [inhibitor, single point]",–
Cc1nn2c(-c3cccnc3)ccnc2c1-c1ccccc1,"inconclusive [inhibitor, full curve, poor fit]",–
CCC(=O)Nc1cccc(C(=O)/C=C/c2cc(Br)ccc2OC)c1,–,inconclusive: -18% [inhibitor]
Cn1c(=O)c2c(nc(N3CCN(c4ccccn4)CC3)n2Cc2ccccc2Cl)n(C)c1=O,–,inconclusive: -20.5% [inhibitor]
COc1ccc(-c2ccnc3cc(C(=O)O)nn23)cc1,"inconclusive [activator, partial curve]",–

SMILES,Potency,"activity change, negative = inhibition"
COc1ccc(NC(=S)N2CCCC2)cc1,"inconclusive [inhibitor, single point]",–
Cc1cccc(C(=O)Nc2ccc(N3CCN(S(C)(=O)=O)CC3)cc2)c1,–,inconclusive: 17.8% [activator]
Nc1n[nH]c(-c2ccc(Br)cc2)c1Cl,"inconclusive [inhibitor, single point]",–
CC[n+]1c(/C=C2/C=C(C)CC(C)(C)C2)sc2ccc(OC)cc21,"inconclusive [inhibitor, single point]",–
CC(C)CSc1nc2ccccc2n1CC(=O)O,–,inconclusive: 6.13% [activator]
Cc1nnc(SCC(=O)N2CCN(S(=O)(=O)c3ccccc3)CC2)n1Cc1ccccc1,"inconclusive [inhibitor, partial curve]",–
Cc1noc(/C=C/N(C)C)c1S(=O)(=O)N1CCCC(C(=O)NC(C)c2ccccc2)C1 (stereo unspecified),–,inconclusive: -16.6% [inhibitor]
COc1ccc(OC)c(-c2cc(C(=O)Nc3cc(C)on3)no2)c1,"inconclusive [activator, single point]",–
CC(=O)N1CCc2cc(S(=O)(=O)NC(CC(C)C)C(=O)N3CCc4ccccc4C3)ccc21 (stereo unspecified),"inconclusive [inhibitor, partial curve]",–
CC(C)n1c(=NC(=O)c2ccco2)c(C#N)cc2c(=O)n3ccccc3cc21,"inconclusive [activator, partial curve]",–
O=C(O)C(=O)/C(=C\c1ccc(Cl)cc1)c1ccc2ccccc2n1,"inconclusive [activator, partial curve]",–
CCOc1ccc(C(=O)Nc2cc(C)ccn2)cc1,inactive,–
CCn1c(CNc2ccc(OC)cc2)nnc1SCC(=O)N1CCCc2ccccc21,"inconclusive [inhibitor, partial curve]",–
COCCOC(=O)c1c(C)n(C)c2ccc(OC(=O)c3cccs3)cc12,"inconclusive [inhibitor, single point]",–
Cc1ccc(-n2nnnc2SCC(=O)N2CCc3ccccc3C2)c(C)c1,"inconclusive [inhibitor, full curve, poor fit]",–
CCCCC1OC23CCCCC2C(C#N)(C(=N)O3)C1(C#N)C#N (stereo unspecified),"inconclusive [activator, partial curve]",–
O=C(N/N=C/c1c(O)ccc2ccccc12)c1cccc(C(F)(F)F)c1,"inconclusive [inhibitor, partial curve]",–
CCOC(=O)Nc1sc(NS(=O)(=O)c2ccc(C)cc2)nc1C,"inconclusive [inhibitor, partial curve]",–
O=C(COC(=O)c1ccc(S(=O)(=O)N2CCCC2)cc1)NCc1cccs1,"inconclusive [inhibitor, partial curve]",–
CNC(=S)Nc1ccc(-c2nc3ccc(C)cc3s2)cc1,–,inconclusive: -18% [inhibitor]
